The whole screen tested about 310,000 compounds, of which about 2,200 (0.71%) showed an effect of 50% or more. The effect is printed as a negative number. Some of the results follow.
biological target: human ether-à-go-go-related gene (hERG) potassium channel (human, UniProt Q12809); assay: primary screen, population patch clamp on CHO cells stably expressing hERG
Sequence (Q12809 whole entry, looked up): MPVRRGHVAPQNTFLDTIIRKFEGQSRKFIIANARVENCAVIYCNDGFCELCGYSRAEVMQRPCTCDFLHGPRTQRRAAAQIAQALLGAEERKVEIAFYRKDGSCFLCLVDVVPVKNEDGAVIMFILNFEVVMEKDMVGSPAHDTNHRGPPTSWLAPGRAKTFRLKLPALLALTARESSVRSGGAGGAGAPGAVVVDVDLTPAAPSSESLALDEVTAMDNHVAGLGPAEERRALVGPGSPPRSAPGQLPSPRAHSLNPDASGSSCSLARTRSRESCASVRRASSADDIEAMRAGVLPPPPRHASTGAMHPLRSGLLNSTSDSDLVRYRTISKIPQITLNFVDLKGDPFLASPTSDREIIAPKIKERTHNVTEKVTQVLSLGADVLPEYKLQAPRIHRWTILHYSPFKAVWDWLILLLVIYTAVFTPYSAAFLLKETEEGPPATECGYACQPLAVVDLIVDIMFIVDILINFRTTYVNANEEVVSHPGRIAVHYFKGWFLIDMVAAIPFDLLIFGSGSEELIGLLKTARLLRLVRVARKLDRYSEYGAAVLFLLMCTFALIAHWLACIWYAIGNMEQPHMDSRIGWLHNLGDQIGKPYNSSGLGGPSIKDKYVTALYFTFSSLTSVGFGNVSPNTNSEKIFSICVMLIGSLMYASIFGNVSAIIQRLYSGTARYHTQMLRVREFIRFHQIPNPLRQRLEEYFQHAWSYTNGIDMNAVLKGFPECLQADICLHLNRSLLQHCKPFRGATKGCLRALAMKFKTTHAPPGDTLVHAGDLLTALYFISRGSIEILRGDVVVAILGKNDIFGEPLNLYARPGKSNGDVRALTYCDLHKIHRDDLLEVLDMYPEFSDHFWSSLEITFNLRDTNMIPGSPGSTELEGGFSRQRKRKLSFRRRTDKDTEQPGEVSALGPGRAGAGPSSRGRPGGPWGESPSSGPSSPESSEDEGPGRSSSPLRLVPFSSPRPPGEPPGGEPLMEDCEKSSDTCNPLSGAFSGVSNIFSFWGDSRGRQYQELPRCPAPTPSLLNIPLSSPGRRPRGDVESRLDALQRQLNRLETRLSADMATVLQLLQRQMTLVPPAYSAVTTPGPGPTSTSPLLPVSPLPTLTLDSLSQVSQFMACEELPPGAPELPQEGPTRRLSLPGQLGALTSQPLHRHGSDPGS

| Compound | hERG current change (%, negative = inhibition) at 1uM [%] |
| --- | --- |
| Cc1ccc(S(=O)(=O)N2CCCN(c3nccc(C(F)(F)F)n3)CC2)cc1 | 10 |
| Cc1ccc(C(=O)CCC(=O)OC(C)C(=O)NC2CCCCC2C)cc1 (stereo not shown) | 6.25 |
| O=C(NCCCN1CCCC1)c1ccc2c(Cl)c3c(nc2c1)CCCC3 | -1.92 |
| COc1ccccc1OC(=O)c1ccc(SC)cc1OC | -9.71 |
| COc1ccc(/C=C\C(=O)c2c(O)ccc3c(C)cc(=O)oc23)cc1OC | 5.82 |
| CCOC(=O)Cn1cnc2c(cnn2-c2ccccc2)c1=O | 8.5 |
| Cc1ccc(NC(=O)CSc2nccn(-c3ccc4c(c3)OCCO4)c2=O)cc1 | -0.57 |
| CCOc1ccc(NC(=O)c2cccs2)c([N+](=O)[O-])c1 | 8.08 |
| CCOC(=O)[C@H]1[C@H]2COc3ccc(Br)cc3[C@@H]2N2C(=O)CN(Cc3ccc(OC)cc3)C(=O)[C@@]12C | 17.6 |
| CCCc1cc(=O)oc2cc(OCC(=O)N3C[C@H]4C[C@@H](C3)c3cccc(=O)n3C4)c(Cl)cc12 | 7.62 |
| Cc1cc(/C=N\NC(=O)CC(=O)NC2CCCCC2)c(C)n1-c1ccc(Cl)c(Cl)c1 | 11.9 |
| Cn1cccc1CC(=O)N/N=C\c1cccs1 | 14.5 |
| CN(CC(=O)Nc1ccc(Cl)cc1)CC(=O)Nc1ccc(C(N)=O)cc1 | 15.3 |
| Cc1cccn2cc(-c3ccc(NC(=O)Cc4ccccc4)cc3)nc12 | 12.7 |
| O=C(c1ccc(CS(=O)Cc2ccc(Cl)cc2)o1)N1CCN(c2ccccc2)CC1 (stereo not shown) | -4.21 |
| COc1cc(NC(=O)CSc2nc3c(c(=O)[nH]2)CCCC3)cc(OC)c1OC | 2.7 |
| CC1C2C(C)N(C)C(=O)N(C)C2N(C)C(=O)N1C (stereo not shown) | 21 |
| CCOC(=O)C(CC)(CCC(=O)O)c1csc(N)n1 (stereo not shown) | 23.7 |
| CCOC(=O)N1CCN(c2ccc(S(=O)(=O)N(Cc3ccccc3)Cc3ccccc3)cn2)CC1 | 0.388 |
| CC(C)c1ccccc1NC(=O)c1ccc(CN(c2ccccc2)S(=O)(=O)c2ccccc2)cc1 | 10.2 |
| C=CCn1c(SCC(N)=O)nnc1-c1cccc(Br)c1 | -1.54 |
| CC1Nc2ncnc(N3CCN(c4ccccn4)CC3)c2N(Cc2ccccc2)C1=O.O=C(O)C(F)(F)F (stereo not shown) | 1.57 |
| N#Cc1ccc(C(=O)Nc2nc3ccccc3[nH]2)cc1 | 17.7 |
| CN(C)/C=C1/C=C(C=O)OC1=O | 11 |
| Cn1c(NC(=O)c2ccccc2NC(=O)C(C)(C)C)nc2ccccc21 | 8.42 |
| O=C(Nc1nc2ccc(Cl)cc2s1)c1ccc(Br)o1 | 1.05 |
| COc1cc([C@@H]2CC=C(C(=O)O)CN2S(=O)(=O)c2ccc(C)cc2)cc(OC)c1OC | 19.1 |
| CC1CCCCN1CCNC(=O)C1CCCN(c2ncnc3c2nc2n3CCCCC2)C1 (stereo not shown) | 7.1 |

| Compound | hERG current change (%, negative = inhibition) at 1uM [%] |
| --- | --- |
| CC1CCN(S(=O)(=O)c2ccc3ncn(CC(=O)N(C)Cc4ccccc4)c(=O)c3c2)CC1 | -3.54 |
| Cn1c(=O)c(=O)n(C)c2cc(S(=O)(=O)N3CCN(c4cccc(C(F)(F)F)c4)CC3)ccc21 | -0.29 |
| Cc1cc(C)cc(NC(=O)CN(C)CC(=O)N(CC(C)C)c2c(N)n(CC(C)C)c(=O)[nH]c2=O)c1 | 5.88 |
| COc1ccnc(N2CCN(c3ccccc3)CC2)c1C#N | 17.2 |
| O=c1c2ccccc2oc2cc(NCCCN3CCOCC3)ccc12 | 5.41 |
| O=C(N[C@@H](Cc1c[nH]c2ccccc12)C(=O)O)C1CCN(S(=O)(=O)c2cccs2)CC1 | 12.2 |
| CCOC(=O)c1c(-c2ccccc2)csc1NC(=O)CCN1C(=O)c2ccccc2C1=O | 13 |
| CCN(CC)C(=O)CN1C(=O)c2cccc3cccc1c23 | 14 |
| O=C(N/N=C/c1cccnc1)c1ccccc1OCc1ccc(Cl)cc1 | 5.37 |
| CCOc1ccc(OCC(=O)Nc2nccs2)cc1 | 20.1 |
| O=C(NCc1ccc2c(c1)OCO2)C1CCCN(S(=O)(=O)c2cccc3cccnc23)C1 (stereo not shown) | 2.31 |
| Br.Fc1ccc(-c2csc(NC3=NCCC3)n2)cc1 | -1.99 |
| Cc1oc(=O)c(NC(=O)c2ccccc2)cc1C(C)O (stereo not shown) | 21.9 |
| COc1ccc(C(C(=O)NC2CCCCC2)N(C(=O)c2ccco2)c2ccccc2OC)cc1 (stereo not shown) | 11.2 |
| CCOC(=O)C(NC(C)=O)C(OC(C)=O)c1cccc(N(CCO)CCO)c1 (stereo not shown) | 16.2 |
| CC1CCC2(CC1)NC(=O)N(CC(=O)NC(=O)NC1CCCC1)C2=O (stereo not shown) | 12.2 |
| CCOC(=O)N1CCN(C(=O)c2ccc([N+](=O)[O-])cc2Cl)CC1 | 6.8 |
| CN1CC(=O)N2C(c3ccc(Cl)cc3)c3[nH]c4ccccc4c3C[C@H]2C1=O (stereo partly shown) | 6.68 |
| O=C(CSCc1ccc(Cl)cc1)Nc1cccc(C(=O)Nc2ccccc2C(=O)O)c1 | 16.4 |
| COc1ccc2ccccc2c1/C=N/NC(=O)c1ccc(C)nc1 | 10.3 |
| O=C(NC1CCCN(Cc2ccc(Cl)cc2)C1)c1cccc(F)c1 (stereo not shown) | -18.6 |
| CCOc1cccc(OCCn2cnc3ccccc3c2=O)c1 | 7.46 |
| CC(=O)N/C(=C/c1ccc2c(c1)OCO2)C(=O)Nc1ccccc1 | -13.5 |
| CC1=CCC(C(=O)O)C(C(=O)Nc2cccnc2)C1 (stereo not shown) | 5.97 |
| O=C(Cn1cnc([N+](=O)[O-])n1)NCCO | 14.6 |
| CC1([N+](=O)[O-])COC2(OC1)C(=O)Nc1ccccc12 (stereo not shown) | 12.9 |
| COc1ccc(/C=C/C(=O)OCC(=O)Nc2ccc(Cl)cn2)cc1 | 12.4 |
